Reference: PubChem BioAssay AID1508642 (National Center for Advancing Translational Sciences (NCATS), 2021)
Screen size: about 43,000 compounds; about 200 (0.47%) were called active. About 12% were inconclusive and are not listed. Calls come from the whole dose curve; as a rule, active = well fitted cell-killing curve with a large enough effect; inconclusive = small, poorly fitted or top-dose-only effect, or effect the other way; inactive = flat fitted curve, though single readings scatter. The list shows a part of the results.

Experiment: Cell viability qHTS assay in S16 Pmp22-F2sN cells; note: nearly all actives have a fitted effect of over 65% in size
Settings: S16 Pmp22-F2sN Schwann cells (luciferase reporters placed in the Pmp22 gene) viability, CellTiter-Glo, 24 h; series mostly up to 57.5 µM; activity change, negative = cytotoxicity: at the top concentration
In short: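 Luminescence from CellTiter-Glo, read by CCD camera after a 15 min room-temperature incubation, served as the viability signal. Reporter Schwann cells (S16 Pmp22-F2sN) had been treated with pin-transferred compounds for 24 h at 37C.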
% is set by controls: 0 for no effect and ±100 for the full control effect.

| Compound | activity change, negative = cytotoxicity |
| --- | --- |
| Cc1ccc(C(=O)N(Cc2sccc2C)C2CCS(=O)(=O)C2)cc1 (configuration not stated) | inactive: 6.09% |
| Cc1ccc(Cn2c(=O)n(Cc3ccco3)c(=O)c3sc4ccccc4c32)cc1 | inactive: 14.4% |
| O=c1c2cnn(-c3ccc(Cl)cc3)c2ncn1Cc1ccc(Cl)cc1Cl | inactive: -3.36% |
| Cc1nc2c(C(=O)NCc3ccccc3)cnn2c(C)c1Cc1ccc(F)cc1 | inactive: -2.53% |
| CC1=C(C(=O)Nc2ccccc2)C(c2cccnc2)n2nc(SCc3ccccc3F)nc2N1 (configuration not stated) | inactive: -2.13% |
| O=c1c2sc3ccccc3c2n(Cc2ccccc2F)c(=O)n1Cc1ccccc1 | inactive: -9.73% |
| CCC(CC)C(=O)Nc1cc(-c2cccc(C)c2)nn1-c1ccccc1 | inactive: 17.6% |
| COc1ccc(Cl)cc1NC(=O)c1cc(C)nc2c1c(C)nn2-c1ccccc1 | inactive: 2.22% |
| COc1cccc(CNC(=O)C2CCN(C(=O)N3CCOc4ccc(Cl)cc43)CC2)c1OC | inactive: -23.3% |
| O=C(CC1N=C2c3ccccc3N=C(SCc3ccccc3F)N2C1=O)NCCc1ccccc1 (configuration not stated) | inactive: -27.1% |
| Cc1cccc(C(=O)Nc2cc3c(cc2N2CCCCC2)n(C)c(=O)c(=O)n3C)c1 | inactive: 8.2% |
| CC(=O)N1CCC2(CC1)OC(=O)C(C)=C2C(=O)Nc1cccc(Cl)c1C | inactive: -0.0034% |
| CCCCC(=O)Nc1cc(C)c(O)c(-c2nc3ncccc3o2)c1 | inactive: 6.5% |
| CCCCN(C)CCNC(=O)c1c(C)oc2ncnc(N3CCOCC3)c12 | inactive: 1.93% |
| Cc1cccc(NC(=O)Cn2c(=O)n(CCC(C)C)c(=O)c3cccnc32)c1 | inactive: -13.4% |
| Cc1ccc(NC(=O)c2cnn(-c3ccc(C)c(C)c3)c2C2CCN(C(=O)OC(C)(C)C)CC2)c(C)c1 | inactive: 3.73% |
| CC(NC(=O)c1ccc2c(c1)N(Cc1cccc(F)c1)C(=O)c1ccccc1S2)c1ccccc1 (configuration not stated) | inactive: 8.93% |
| Cc1ccc(-n2c(=O)c3c(c4cc(C)ccc4n3C)n(CC(=O)Nc3c(C)cccc3C)c2=O)cc1 | inactive: 1.77% |
| O=C(CCSCCc1ccccn1)Nc1cc(F)ccc1F | inactive: 9.29% |
| Cc1ccc(-n2nc(C(=O)N3CCN(c4cccc(C(F)(F)F)c4)CC3)c(=O)n(C)c2=O)cc1 | inactive: -24.3% |
| Cc1ccc(CNc2ccc(-c3nc(C(C)C)no3)cc2[N+](=O)[O-])cc1 | inactive: 9.02% |

| Compound | activity change, negative = cytotoxicity |
| --- | --- |
| COc1cc(NC(=O)CN2C(=O)C(c3ccc(C)cc3)=NC23CCCCC3)cc(OC)c1 | inactive: -24.6% |
| Cc1cccc(N2CCN(C(=O)c3cc4c(=O)oc5ccccc5c4s3)CC2C)c1 (configuration not stated) | inactive: 3.98% |
| Cc1ccc(NS(=O)(=O)c2ccc3c(c2)NC(=O)C(C)C(=O)N3)cc1F (configuration not stated) | inactive: -1.68% |
| Cc1ccc(NC(=O)CSc2cc(=O)n(C)c3ccc(Cl)cc23)c(Br)c1 | inactive: 1.12% |
| COc1ccc(CNS(=O)(=O)c2cc3c(cc2C)n(C)c(=O)c(=O)n3C)cc1 | inactive: 9.93% |
| COc1cccc(NC(=O)c2nn(-c3ccc(C)cc3)c(=O)n(C)c2=O)c1 | inactive: 2.97% |
| CC(C)CN(CC(C)C)C(=O)C1CCCN(S(=O)(=O)c2ccc3c(c2)oc(=O)n3C)C1 (configuration not stated) | inactive: -5.81% |
| Cc1cc(C)c2nc(N3CCCC(C(=O)NCc4cccc(Cl)c4)C3)sc2c1 (configuration not stated) | inactive: 10.4% |
| Cc1ccc(-c2nc3cc(NC(=O)c4cc5ccccc5o4)ccc3o2)cc1 | inactive: 0.841% |
| Cc1ccc2c(CC(=O)Nc3cccc(Cl)c3C)coc2c1 | inactive: -15.5% |
| Cn1c(=O)n(C/C=C/c2ccccc2)c(=O)c2c1nc1n2CCN1c1ccc(F)cc1 | inactive: -0.581% |
| COc1ccc(S(=O)(=O)NCCc2sc(C)nc2C)cc1F | inactive: -13.1% |
| Cc1cccc(OCCCCn2c(C3CC(=O)N(c4ccccc4Cl)C3)nc3ccccc32)c1 (configuration not stated) | inactive: 20.7% |
| COc1ccc(C(=O)CC2(O)C(=O)Nc3c(C)cccc32)c(OC)c1OC (configuration not stated) | inactive: 1.2% |
| CCOc1ccc(-n2c(SCC(=O)Nc3cccc(Cl)c3)nc3c(oc4ccccc43)c2=O)cc1 | inactive: 24.8% |
| CCOc1ccc(-c2cnc(NCc3ccc(C(F)(F)F)cc3)n2C)cc1 | inactive: -11.9% |
| CN1CCN(c2ncc3c(n2)CCN(Cc2cc(Br)cs2)C3)CC1 | inactive: -0.0301% |
| CCN1C(=O)c2ccccc2Sc2ccc(NC(=O)COc3ccc(Cl)cc3)cc21 | inactive: -21.6% |
| Cc1cccc(OCC(=O)NC(Cc2c[nH]c3ccccc23)C(=O)O)c1C (configuration not stated) | inactive: 0.291% |
| COc1ccc(CCNC(=O)C(=O)NCC(c2ccc3c(c2)OCO3)N2CCOCC2)cc1 (configuration not stated) | inactive: -16.5% |
| CCc1nonc1NC(=O)c1oc2ccc(F)cc2c1C | inactive: 10.3% |

| Compound | activity change, negative = cytotoxicity |
| --- | --- |
| O=C(Nc1cc(F)ccc1F)N1CCC(CN2CCOCC2)CC1 | inactive: -0.296% |
| COc1ccc(-n2cc(-c3ccccc3)c3c(NC4CCCCC4)ncnc32)cc1 | inactive: -22.2% |
| Cc1ccccc1C(=O)N(Cc1ccc(N(C)C)cc1)Cc1ccco1 | inactive: -6.37% |
| CN(C)c1ccc(CN(CC2CCCO2)C(=O)COc2ccccc2Cl)cc1 (configuration not stated) | inactive: -8.65% |
| COc1ccccc1CNC(=O)Cc1c(C)c2c(cc(C)c3c(C)coc32)oc1=O | inactive: 18.3% |
| COc1ccc(N(CC(=O)NCc2ccc(F)cc2)S(=O)(=O)c2c(C)noc2C)cc1 | inactive: 2.91% |
| N#Cc1ccc(-c2cccs2)nc1SCc1c(F)cccc1Cl | inactive: -9% |
| CCCN(c1ccc(C(C)C)cc1)S(=O)(=O)c1ccc2c(c1)CCN2C(=O)CC | inactive: 0.923% |
| O=C(NC1CCCC1)c1ccc2c(c1)N(Cc1ccc(C(F)(F)F)cc1)C(=O)c1ccccc1S2 | inactive: 13.8% |
| Cc1ccccc1Cn1c(=O)n(Cc2ccc3c(c2)OCO3)c(=O)c2oc3ccccc3c21 | inactive: 10.1% |
| O=C(CCc1nc2cccnc2n1Cc1cccs1)Nc1cccc(C(F)(F)F)c1 | inactive: -15.2% |
| O=C(c1ccc(C(F)(F)F)cc1)N1CCC(c2noc(-c3ccc(S(=O)(=O)N4CCCC4)cc3)n2)CC1 | inactive: -23.5% |
| NC(=O)c1ccccc1NC(=O)C1CCCN(c2ncnc3onc(-c4ccc(F)cc4)c23)C1 (configuration not stated) | inactive: -20.4% |
| O=C(c1cccs1)N(Cc1cccnc1)c1nc2c(Cl)cccc2s1 | inactive: -22.2% |
| COCCCNS(=O)(=O)c1cc(-c2onc(C)c2C)ccc1OC | inactive: -23.1% |
| COc1ccc(N2CCN(C(=O)CSc3n[nH]c(-c4ccccc4)n3)CC2)cc1 | inactive: 7.15% |
| COc1ccc(-c2noc(CCC(=O)N(C)c3ccccc3C)n2)cc1 | inactive: -3.82% |
| CN(C)C(=O)c1ccc(NC(=O)Cn2nnnc2-c2ccccc2F)cc1 | inactive: 1.03% |
| Cc1ccccc1NC(=O)CSc1c(C(C)C)cnc2c1c(=O)n(C)c(=O)n2C | inactive: -15.5% |
| Cc1cc(C)cc(OCC(=O)Nc2nc(-c3ccc(F)cc3)ns2)c1 | inactive: 3.75% |
